Laboratory results: PubChem BioAssay (NCI)
Several values for one entry are separate records, joined by “and”; a condition that tells them apart may be missing. Equal values may be shown once.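 Following 48 hours of exposure in 96-well plates, responses at five concentrations were used to interpolate endpoints linearly. GI50 is the concentration that inhibits growth by half. TGI denotes the concentration required for complete inhibition of growth.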 Activity calls are given as the source filed them.

Tested on: MDA-MB-468 breast
Assay: DTP human tumour cell line panel, 48 h

CNC(=O)c1ccccc1Sc1ccc2c(/C=C/c3ccccn3)n[nH]c2c1
GI50: inactive | TGI: 88.5 µM and > 10 µM
